# Measurements as given in the supplement of paper PMC4604168 (melanoma cell lines).
# Some of the results follow. Single values are uncertain, as repeats are few or missing.
# Key:
# Assay in all cases: cell count relative to DMSO control; melanoma cells; higher = more viable cells
# Conditions in all cases: library dose: low library concentration; 72 h
# [1] = system: MZ2-MEL
# [2] = system: MeWo
# [3] = system: RPMI7951
# [4] = system: RVH-421
# [5] = system: SkMel28
# [6] = system: SkMel2
# [7] = system: SkMel30
# [8] = system: UACC62
# [9] = system: SkMel5
# [10] = system: UACC257
# 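Further: cell number obtained by counting DAPI-stained nuclei in high-throughput microscope images with image analysis software, screen run in 1,536-well plates.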
SMILES,cell count [1] [%],cell count [2] [%],cell count [3] [%],cell count [4] [%],cell count [5] [%],cell count [6] [%],cell count [7] [%],cell count [8] [%],cell count [9] [%],cell count [10] [%]
"Nc1nc(F)nc2c1ncn2[C@@H]1O[C@H](CO)[C@@H](O)[C@@H]1O [fludarabine] + C=CCNC1=C2C[C@@H](C)C[C@H](OC)[C@H](O)[C@@H](C)/C=C(\C)[C@H](OC(N)=O)[C@@H](OC)/C=C\C=C(/C)C(=O)NC(=CC1=O)C2=O [Tanespimycin] (first compound 0.2 µM, partner dose 0.002 µM)",107,35.7,79,72,92.7,6.96,22.7,93.5,–,–
"Nc1ccn([C@@H]2O[C@H](CO)[C@@H](O)C2(F)F)c(=O)n1 [gemcitabine] + COCC[n+]1c2c(n(Cc3cnccn3)c1C)C(=O)c1ccccc1C2=O [YM155] (first compound 0.0004 µM, partner dose 0.0004 µM)",44.9,93.3,88.1,95.8,81.3,100,114,88.2,–,–
"CO[C@H]1C[C@@H]2CC[C@@H](C)[C@@](O)(O2)C(=O)C(=O)N2CCCC[C@H]2C(=O)O[C@H]([C@H](C)C[C@@H]2CC[C@@H](OCCO)[C@H](OC)C2)CC(=O)[C@H](C)/C=C(\C)[C@@H](O)[C@@H](OC)C(=O)[C@H](C)C[C@H](C)/C=C/C=C/C=C/1C [everolimus] + Cc1nc(Nc2ncc(C(=O)Nc3c(C)cccc3Cl)s2)cc(N2CCN(CCO)CC2)n1 [dasatanib] (first compound 0.02 µM, partner dose 0.004 µM)",63.1,68.3,50.1,83.5,55,–,57.7,60.4,–,–
"CO[C@H]1C[C@@H]2CC[C@@H](C)[C@@](O)(O2)C(=O)C(=O)N2CCCC[C@H]2C(=O)O[C@H]([C@H](C)C[C@@H]2CC[C@@H](OCCO)[C@H](OC)C2)CC(=O)[C@H](C)/C=C(\C)[C@@H](O)[C@@H](OC)C(=O)[C@H](C)C[C@H](C)/C=C/C=C/C=C/1C [everolimus] + CC1(C)NC(=O)N(c2ccc([N+](=O)[O-])c(C(F)(F)F)c2)C1=O [nilutamide] (first compound 0.02 µM, partner dose 1 µM)",77.2,66.1,96.1,71.9,49.5,–,62.8,72.5,94.8,57.9
"CO[C@H]1C[C@@H]2CC[C@@H](C)[C@@](O)(O2)C(=O)C(=O)N2CCCC[C@H]2C(=O)O[C@H]([C@H](C)C[C@@H]2CC[C@@H](OCCO)[C@H](OC)C2)CC(=O)[C@H](C)/C=C(\C)[C@@H](O)[C@@H](OC)C(=O)[C@H](C)C[C@H](C)/C=C/C=C/C=C/1C [everolimus] + Cc1cc(N2CCOCC2)cc2[nH]c(-c3c(NC[C@@H](O)c4cccc(Cl)c4)cc[nH]c3=O)nc12 [BMS536924] (first compound 0.02 µM, partner dose 0.2 µM)",61.8,65.9,94.5,83.5,55.6,–,53,78.4,81.6,43.2
"CO[C@H]1C[C@@H]2CC[C@@H](C)[C@@](O)(O2)C(=O)C(=O)N2CCCC[C@H]2C(=O)O[C@H]([C@H](C)C[C@@H]2CC[C@@H](OCCO)[C@H](OC)C2)CC(=O)[C@H](C)/C=C(\C)[C@@H](O)[C@@H](OC)C(=O)[C@H](C)C[C@H](C)/C=C/C=C/C=C/1C [everolimus] + CN(NC(=O)CC(=O)NN(C)C(=S)c1ccccc1)C(=S)c1ccccc1 [STA4783] (first compound 0.02 µM, partner dose 0.006 µM)",69.9,69.5,94.7,88.1,53.2,–,64.1,75.7,89.2,83.5
"CO[C@H]1C[C@@H]2CC[C@@H](C)[C@@](O)(O2)C(=O)C(=O)N2CCCC[C@H]2C(=O)O[C@H]([C@H](C)C[C@@H]2CC[C@@H](OCCO)[C@H](OC)C2)CC(=O)[C@H](C)/C=C(\C)[C@@H](O)[C@@H](OC)C(=O)[C@H](C)C[C@H](C)/C=C/C=C/C=C/1C [everolimus] + O=C(Nc1cccc(Cl)c1)Nc1ncc(CCNc2ncnc3ccsc23)s1 [SNS314] (first compound 0.02 µM, partner dose 0.0008 µM)",65.1,80,74.6,71,58.8,–,63,76,105,58.2
"CO[C@H]1C[C@@H]2CC[C@@H](C)[C@@](O)(O2)C(=O)C(=O)N2CCCC[C@H]2C(=O)O[C@H]([C@H](C)C[C@@H]2CC[C@@H](OCCO)[C@H](OC)C2)CC(=O)[C@H](C)/C=C(\C)[C@@H](O)[C@@H](OC)C(=O)[C@H](C)C[C@H](C)/C=C/C=C/C=C/1C [everolimus] + COc1cc2c(Oc3ccc4[nH]c(C)cc4c3F)ncnc2cc1OCCCN1CCCC1 [cediranib] (first compound 0.02 µM, partner dose 0.4 µM)",78.4,75.9,68.7,82.1,51.2,–,66.3,74.5,95.1,53.5
"CO[C@H]1C[C@@H]2CC[C@@H](C)[C@@](O)(O2)C(=O)C(=O)N2CCCC[C@H]2C(=O)O[C@H]([C@H](C)C[C@@H]2CC[C@@H](OCCO)[C@H](OC)C2)CC(=O)[C@H](C)/C=C(\C)[C@@H](O)[C@@H](OC)C(=O)[C@H](C)C[C@H](C)/C=C/C=C/C=C/1C [everolimus] + N#Cc1c(O)c2c(-c3ccc(-c4ccccc4O)cc3)csc2[nH]c1=O [A769662] (first compound 0.02 µM, partner dose 2 µM)",74.9,75.1,64.3,53.5,68.6,–,62.4,60,96.8,66.3
"CO[C@H]1C[C@@H]2CC[C@@H](C)[C@@](O)(O2)C(=O)C(=O)N2CCCC[C@H]2C(=O)O[C@H]([C@H](C)C[C@@H]2CC[C@@H](OCCO)[C@H](OC)C2)CC(=O)[C@H](C)/C=C(\C)[C@@H](O)[C@@H](OC)C(=O)[C@H](C)C[C@H](C)/C=C/C=C/C=C/1C [everolimus] + C#Cc1cccc(Nc2ncnc3cc(OCCOC)c(OCCOC)cc23)c1 [erlotinib] (first compound 0.02 µM, partner dose 0.8 µM)",69,68.8,71.8,96.1,68.5,–,60.5,77.3,–,–
"CO[C@H]1C[C@@H]2CC[C@@H](C)[C@@](O)(O2)C(=O)C(=O)N2CCCC[C@H]2C(=O)O[C@H]([C@H](C)C[C@@H]2CC[C@@H](OCCO)[C@H](OC)C2)CC(=O)[C@H](C)/C=C(\C)[C@@H](O)[C@@H](OC)C(=O)[C@H](C)C[C@H](C)/C=C/C=C/C=C/1C [everolimus] + C=CCn1c(=O)c2cnc(Nc3ccc(N4CCN(C)CC4)cc3)nc2n1-c1cccc(C(C)(C)O)n1 [MK1775] (first compound 0.02 µM, partner dose 0.02 µM)",70.7,70.4,81.4,91.6,55.5,–,76.9,68.2,66.9,62.7
"CO[C@H]1C[C@@H]2CC[C@@H](C)[C@@](O)(O2)C(=O)C(=O)N2CCCC[C@H]2C(=O)O[C@H]([C@H](C)C[C@@H]2CC[C@@H](OCCO)[C@H](OC)C2)CC(=O)[C@H](C)/C=C(\C)[C@@H](O)[C@@H](OC)C(=O)[C@H](C)C[C@H](C)/C=C/C=C/C=C/1C [everolimus] + O=C(CCCCCCC(=O)Nc1ccccc1)NO [vorinostat] (first compound 0.02 µM, partner dose 0.08 µM)",88.8,72.4,66.8,88.2,57.7,–,138,72.8,89.4,53.6
"CO[C@H]1C[C@@H]2CC[C@@H](C)[C@@](O)(O2)C(=O)C(=O)N2CCCC[C@H]2C(=O)O[C@H]([C@H](C)C[C@@H]2CC[C@@H](OCCO)[C@H](OC)C2)CC(=O)[C@H](C)/C=C(\C)[C@@H](O)[C@@H](OC)C(=O)[C@H](C)C[C@H](C)/C=C/C=C/C=C/1C [everolimus] + NCC(=O)Nc1ccc(-n2nc(C(F)(F)F)cc2-c2ccc3c(ccc4ccccc43)c2)cc1 [OSU03012] (first compound 0.02 µM, partner dose 1 µM)",78.9,56.8,96.2,87.5,61.4,–,64.7,84.7,121,59.4
"CO[C@H]1C[C@@H]2CC[C@@H](C)[C@@](O)(O2)C(=O)C(=O)N2CCCC[C@H]2C(=O)O[C@H]([C@H](C)C[C@@H]2CC[C@@H](OCCO)[C@H](OC)C2)CC(=O)[C@H](C)/C=C(\C)[C@@H](O)[C@@H](OC)C(=O)[C@H](C)C[C@H](C)/C=C/C=C/C=C/1C [everolimus] + Oc1cc(-c2nc(-c3ccccc3)[nH]c2-c2ccncc2)ccc1Cl [L779450] (first compound 0.02 µM, partner dose 0.2 µM)",66.6,68.4,77.4,70.8,45.8,–,74.5,61.5,95,57.2
"CO[C@H]1C[C@@H]2CC[C@@H](C)[C@@](O)(O2)C(=O)C(=O)N2CCCC[C@H]2C(=O)O[C@H]([C@H](C)C[C@@H]2CC[C@@H](OCCO)[C@H](OC)C2)CC(=O)[C@H](C)/C=C(\C)[C@@H](O)[C@@H](OC)C(=O)[C@H](C)C[C@H](C)/C=C/C=C/C=C/1C [everolimus] + COc1ccc2c(c1)CCC1C2CCC2(C)C(NCCCCCCN3C(=O)C=CC3=O)CCC12 [U73122] (first compound 0.02 µM, partner dose 0.4 µM)",73.1,69.1,76.8,72.3,50.9,–,58.6,59.9,101,96.6
"CO[C@H]1C[C@@H]2CC[C@@H](C)[C@@](O)(O2)C(=O)C(=O)N2CCCC[C@H]2C(=O)O[C@H]([C@H](C)C[C@@H]2CC[C@@H](OCCO)[C@H](OC)C2)CC(=O)[C@H](C)/C=C(\C)[C@@H](O)[C@@H](OC)C(=O)[C@H](C)C[C@H](C)/C=C/C=C/C=C/1C [everolimus] + C[C@]1(c2nc3c(C(N)=O)cccc3[nH]2)CCCN1 [Veliparib] (first compound 0.02 µM, partner dose 1.4 µM)",78.3,69.5,86.3,78.6,54.9,–,59,64.8,–,–
